Hit rate of the full screen: of about 320,000 compounds, about 9,100 (2.8%) were called active. Inconclusive results, whose numbers are uncertain, are shown with a selection of clear calls. Calls follow the shape of the dose curve; as a rule, active = well fitted activation curve with a large enough effect; inconclusive = small, poorly fitted or top-dose-only effect; inactive = no such curve, though single readings can be large or run the other way. No potency is given beside an inconclusive call; the fits are too rough.
experiment: qHTS Assay for Rab9 Promoter Activators; conditions: Huh7 Rab9 promoter-luciferase reporter, luminescence, 24 h; series mostly up to 9.22 µM; also: nearly all actives have a fitted effect of over 60% in size
Summary of the method: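 Cell-based reporter: Huh7 stable for Rab9 promoter-driven luciferase, plated in reduced-serum medium with 10% FBS at 1500 cells/well, compound-treated 24 h at 37 °C, luminescence read after 10 min reagent.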
Potency is read from the fitted curve at half-maximal effect; tags tell the direction and shape of the fitted curve.

SMILES	Potency
COc1ccc(-c2cn3cc(C)ccc3n2)cc1Br	active: 1.26 µM
CCOc1ccc2[nH]c(C(=O)N/N=C/c3ccccc3OC)cc2c1	inactive
Cc1cc(C(=O)CSc2nnnn2-c2ccc(O)cc2)c(C)n1Cc1ccc2c(c1)OCO2	inactive
CC(O)CNc1ncnc2cc(-c3ccc(F)cc3)sc12 (configuration not stated)	inconclusive [activator, partial curve]
Clc1ccc(-c2cn3cc(Cl)ccc3n2)cc1	active: 0.794 µM
O=C(O)C1Cc2ccccc2CN1C(=O)c1ccccc1 (configuration not stated)	inactive
O=C(Nc1ccc(Br)cc1)N1CCCCCCC1	inconclusive [activator, single point]
CCN(CC)S(=O)(=O)c1cc(C(=O)Nc2ccccn2)ccc1C	active: 1.78 µM
Cc1ccc(C(=O)Nc2nnc(-c3ccncc3)o2)cc1	inconclusive [activator, partial curve]
O=C(NCCc1ccccc1)c1ccc(Cl)cc1[N+](=O)[O-]	inconclusive [activator, partial curve]
Brc1ccc(-c2ccc(/C=N/Nc3nncc(-c4ccccc4)n3)o2)cc1	inactive
COc1ccc(C(=O)N/N=C/c2sc(=O)n(Cc3cccc(C(=O)O)c3)c2Cl)cc1	inactive
CCOC(=O)c1ccc(-c2ccc(/C=N/NC(=O)CN(c3ccccc3Br)S(C)(=O)=O)o2)cc1	inconclusive [activator, single point]
CCn1c(C(=O)OC)cc2c1ccn2-c1ccc(F)cc1	inconclusive [activator, partial curve]
Fc1cccc2sc(N3CCCC3)nc12	inconclusive [activator, partial curve]
Cc1ccc(C(=O)CNc2cccc([N+](=O)[O-])c2)cc1	inconclusive [activator, single point]
CCOC(=O)c1ccc(NCc2nc3ccccc3[nH]2)cc1	inconclusive [activator, single point]
CCOc1ccc(-c2cc(C(=O)Nc3ccc4c(c3)OCCO4)c3ccccc3n2)cc1	inconclusive [activator, partial curve]
Cc1cccc(Oc2ccc(NC(=O)c3ccccc3C(=O)O)cc2)c1C	inactive
Cc1ccc(NC(=O)c2scc3c2CCCC3)cc1	active: 1.78 µM
CSc1ccccc1OCc1cc(C(=O)N(C)CC2COCCO2)no1 (configuration not stated)	inconclusive [activator, partial curve]
CCN(CC(=O)NCc1ccc(Cl)cc1)C(=O)CN1C(=O)NC(C)(c2ccccc2)C1=O (configuration not stated)	inactive
